# Out of some 380,000 compounds screened, about 4,000 (1.1%) were called active. The inconclusive results got no clear call from the source; some entries with a clear call stand among them for comparison. Calls come from the whole dose curve; as a rule, active = well fitted activation curve with a large enough effect; inconclusive = small, poorly fitted or top-dose-only effect; inactive = no such curve, though single readings can be large or run the other way. Potencies of inconclusive entries are doubtful fits and often do not repeat.
# Experiment: qHTS Assay to Identify Small Molecule Activators of BRCA1 Expression; note: nearly all actives have a fitted effect of over 80% in size
# Conditions: MCF7-BRCA1-FFLuc reporter, luminescence, 48 h; activation: at 46.1 µM (top of the series), scaled: vehicle 0%, 10 µM genistein 100% unless noted
# Summary of the method: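 Activators of BRCA1 expression were detected as increased firefly luciferase luminescence in engineered MCF7 cells after 48 h compound incubation. Signals were scaled to genistein 10 microM as full activation.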
# Potency is the fitted concentration of half-maximal effect; tags give direction and shape of the fitted curve.
SMILES,Potency,activation
C/C=C/C(=O)OCC(=O)Nc1nc2ccc(C)cc2s1,"inconclusive: 15.8 µM [activator, partial curve, poor fit]",
CN1C(=O)N(C)C2(c3ccccc3)N(C(C)(C)C)C(=O)NC12c1ccccc1 (stereo not drawn),,inactive: -15.1%
Cc1ccc(C2=NNC(C(O)C(O)C(O)C(C)O)S2)cc1 (stereo not drawn),"inconclusive: 11.2 µM [activator, partial curve, poor fit]",
O=C(COc1cc(Cl)c(Cl)cc1Cl)NC(=O)Nc1ccc2c(c1)OCCO2,"inconclusive: 12.6 µM [activator, partial curve, poor fit]",
Cc1ccc(C)c(NC(=S)NNC(=O)c2csc3c2CCCC3)c1,,inactive: -22.9%
CN(C)c1ccc(C(=O)OCC(=O)c2cccs2)cc1,"inconclusive: 1.12 µM [activator, full curve, poor fit]",
CC(C)(C)SCCNC(=O)/C=C/c1ccccc1,"inconclusive: 12.6 µM [activator, partial curve, poor fit]",
COCC1CCCN(Cc2nc(-c3ccc4c(c3)OCO4)no2)C1 (stereo not drawn),"inconclusive: 11.2 µM [activator, partial curve, poor fit]",
Cc1ccc(SCc2cn3cccnc3n2)cc1,active: 11.2 µM,
CCN(CC)C(=O)c1cc(-c2ccc(Br)cc2)on1,active: 7.94 µM,
Cc1ccc(NC(=O)c2cc(C)no2)cc1,"inconclusive: 11.2 µM [activator, partial curve, poor fit]",
O=C1Nc2ccc([N+](=O)[O-])cc2OC1CCN1CCN(c2ccccc2)CC1 (stereo not drawn),,inactive: -3.27%
CSc1ccc(CNc2ccc(C)c(C)c2)cc1,"inconclusive: 12.6 µM [activator, partial curve, poor fit]",
Cc1ccc(C(=O)NCCSC(C)(C)C)cc1,,inactive: 31.3%
S=C(Nc1nc2c(s1)CCCC2)NC1CC1,active: 6.31 µM,
Cc1cc(-c2n[nH]c(=S)n2/N=C/c2cccs2)n[nH]1,,inactive: 91.9%
Cc1ccnc(NC(=O)Nc2ccc3c(c2)N(C)C(=O)CS3)c1,"inconclusive: 2.51 µM [activator, partial curve, poor fit]",
NCc1cn(Cc2ccccc2)nc1-c1ccccc1,,inactive: 26.3%
CCOC(=O)c1cc2c(nc1N)CC(C)(CC)OC2 (stereo not drawn),"inconclusive: 12.6 µM [activator, partial curve, poor fit]",
Cc1c(C(=O)Nc2ccccc2)sc2nc(-c3ccccc3)cn12,"inconclusive: 2 µM [activator, partial curve, poor fit]",
Cc1ccc2c(CN3CCC(C)CC3)cc(=O)oc2c1C,"inconclusive: 10 µM [activator, partial curve, poor fit]",
Clc1cc(Cl)c2nc(N3CCCCC3)sc2c1,"inconclusive: 12.6 µM [activator, partial curve, poor fit]",
Cc1cc(C)cc(NC(=O)CSc2nnc(-c3ccccc3C)o2)c1,"inconclusive: 15.8 µM [activator, partial curve, poor fit]",
c1ccc(Cn2c(-c3cncs3)nc3ccccc32)cc1,"inconclusive: 15.8 µM [activator, partial curve, poor fit]",

SMILES,Potency,activation
COc1ccc(-c2nnc(-c3cccnc3)o2)cc1,"inconclusive: 10 µM [activator, partial curve, poor fit]",
Cc1ccc2cc(CN(Cc3ccc4c(c3)OCO4)Cc3nnnn3Cc3ccco3)c(=O)[nH]c2c1,,inactive: -29.9%
CCOc1ccc(C(O)Cc2nc3ccccc3n2C)cc1 (stereo not drawn),active: 12.6 µM,
COc1cc(C=CC(=O)c2ccccc2)cc(OC)c1OC,,inactive: -60.2%
COc1cccc(Nc2ncccc2C(=O)O)c1,active: 11.2 µM,
O=C(CSc1nc2ccccc2[nH]1)Nc1ccccc1F,,inactive: 7.29%
CC1SCC(=NOCc2ccccc2)CS1 (stereo not drawn),"inconclusive: 35.5 µM [activator, single point]",
Cc1ccc(O)c(C(=O)/C=C/c2ccc3c(c2)OCCCO3)c1,active: 7.08 µM,
O=C(/C=C/c1cccs1)Nc1nccs1,"inconclusive: 2.51 µM [activator, full curve, poor fit]",
COc1ccc(C)c2sc(NC(=O)c3ccc(S(=O)(=O)N(C)C)cc3)nc12,,inactive: 6.87%
Nc1cc(N)nc(SCCOc2ccccc2)n1,active: 12.6 µM,
O=C(Nc1ccccn1)c1ccc(-c2ccccc2)cc1,"inconclusive: 1.26 µM [activator, full curve, poor fit]",
COc1ccc(CC(=O)OCC(=O)Nc2ccc(C(=O)Nc3ccc(OC)cc3)cc2)cc1,active: 11.2 µM,
O=C(c1ccc(F)cc1)C(CCCCCC(CN1CCOCC1)C(=O)c1ccc(F)cc1)CN1CCOCC1 (stereo not drawn),,inactive: -45.4%
CN(C)c1ccc(/C=N/N2CCN(c3ccccn3)CC2)cc1,"inconclusive: 11.2 µM [activator, partial curve, poor fit]",
CC(C)(C)C(=O)Nc1nc2cc3c(cc2s1)OCO3,"inconclusive: 2.51 µM [activator, full curve, poor fit]",
Cc1ccc(NC(=O)c2ccccc2)s1,"inconclusive: 3.16 µM [activator, partial curve, poor fit]",
COC(C(=O)C(O)C(C)O)C1Cc2cc3cc(OC4CC(OC5CC(O)C(O)C(C)O5)C(O)C(C)O4)c(C)c(O)c3c(O)c2C(=O)C1OC1CC(OC2CC(OC3CC(O)C(OC)C(C)O3)C(O)C(C)O2)C(O)C(C)O1 (stereo not drawn),,inconclusive: -85.5% [activator]
COc1cc(CNc2ccc3[nH]c(=O)[nH]c3c2)ccc1OCc1ccc(Cl)cc1,,inactive: 61.6%
COc1cccc2cc(-c3ccnc(N)n3)oc12,"inconclusive: 11.2 µM [activator, partial curve, poor fit]",
C=CCNC(=S)NC(=O)c1ccc(C)c(Br)c1,"inconclusive: 25.1 µM [activator, single point]",
Cc1ccc(C(=O)Nc2ccc3c(c2)OCCO3)cc1,,inconclusive: -78.7% [activator]
Cc1cc(C)c(C(O)c2ncc(-c3cccc4ccccc34)[nH]2)c(C)c1 (stereo not drawn),,inactive: -12.5%
CCC1(O)CC2CN(CCc3c([nH]c4ccccc34)C(C(=O)OC)(c3cc4c(cc3OC)N(C=O)C3C(O)(C(=O)OC)C(OC(C)=O)C5(CC)C=CCN6CCC43C65)C2)C1 (stereo not drawn),,inconclusive: -86.8% [activator]

# — PubChem BioAssay AID624202 (National Center for Advancing Translational Sciences (NCATS), 2012)
